Measurements as given in PubChem BioAssay (NCI).
“And” between values parts separate entries of the source, which are not always exact repeats. Equal values may be shown once.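 Grown in 96-well plates, cells were treated for 48 hours with each compound at five concentrations. Insufficient inhibition: endpoint recorded as highest concentration tested. GI50: concentration for 50% inhibition of growth. TGI is the concentration that stops growth completely.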

Tested on: NCI-H322M lung
Assay: NCI-60 cell line screen, 48 h

SMILES | TGI | GI50
Cc1nnc(N=Nc2c(O)[nH]c3ccccc23)[nH]c1=O | > 100 µM | –
CC1=CC(O)CC(C)(C)C1/C=C/C(C)=C/C=C/C(C)=C/C=C/C=C(C)/C=C/C=C(C)/C=C/C1=C(C)CC(O)CC1(C)C (centres undefined) | > 100 µM | –
COc1ccccc1-c1nccc(COc2ccccc2C[C@@H](Oc2ncnc3sc(-c4ccc(F)cc4)c(-c4ccc(OCCN5CCN(C)CC5)c(Cl)c4C)c23)C(=O)O)n1 | 3.7 µM | 1.78 µM
N#Cc1ccnc(C(=O)N2CCCC2C(=O)O)c1 (centres undefined) | > 100 µM | –
O=c1c2ccccc2c(=O)c2c1sc1c(=O)c3ccc(O)cc3c(=O)c12 | 0.326 µM | 0.177 µM
O=C1OC(c2ccc(Cl)c3ccccc23)c2ccccc21 (centres undefined) | > 100 µM | –
CC1=[N+]([O-])C2(CCCC2)N(O)C1(C)C | > 100 µM | –
Cc1cccc2c(N)c3cccc(C(=O)NCC[N+](C)(C)[O-])c3nc12 | 63.9 µM | –
C/C(N=NC(=S)N1CCCCCC1)=C1\C=CC=CN1O | 98.6 µM | –
Cc1ccc(S(=O)c2ccc([N+](=O)[O-])c3nonc23)cc1 (centres undefined) | 29.3 µM | 15.4 µM
Cc1cc(Nc2cc(N3CCN(C)CC3)nc(C#Cc3ccccc3)n2)n[nH]1 | 15.6 µM | 1.37 µM
O=c1ncccn1C1OC(CO)C(O)C1F (centres undefined) | > 100 µM | –
O=C(O)C(O)c1ccc(F)cc1 (centres undefined) | > 100 µM | –
COc1ccc2c(c1)c(-c1cc(-c3cn(C)c4ccc(OC)cc34)[nH]n1)cn2C | > 100 µM | > 100 µM
NC(=O)c1ncn(C2OC(CO)C(O)C2O)c1NC(=S)NC(=O)c1ccccc1 (centres undefined) | > 100 µM | –
Cc1cc([C@H](C)Nc2nccc(N3C(=O)OC[C@@H]3[C@H](C)F)n2)ncc1-c1ccnc(C(F)(F)F)c1 | > 100 µM | > 100 µM
Clc1sc(Cl)c2c1[C@H](Br)C[C@@H]2Cl | > 100 µM | –
CC(C)NC(=O)OCc1c(COC(=O)NC(C)C)n(C)c2c1ccc1cc(Cl)c(Cl)cc12 | 35.5 µM | –
Cc1ccc(N2C(=O)/C(=C3\Sc4c(nc(C)n(C)c4=O)N3c3ccccc3)SC2=S)cc1 | > 100 µM | –
O=c1ccn([C@@H]2C=C(CO)[C@@H](O)[C@H]2O)c(=O)[nH]1 | > 625 µM | –
Cn1c2ccccc2c2c3c(=O)[nH][nH]c(=O)c3c3c4ccccc4n(C)c3c21 | > 100 µM | –
Cc1nc2ccccc2n1Cc1ccc(NC(=S)Nc2ccccc2)cc1 | > 100 µM | –
O=C(O)Cn1c[n+](NC(=O)Cc2ccccc2)cn1 | > 10 µM | –
Fc1ccc(OCc2ccc3nc(-c4ccccc4)c(Cl)nc3c2)cc1 | > 100 µM | –

SMILES | TGI | GI50
C=C1C[C@@H]2CC[C@@]34CC5O[C@H]6C(O[C@H]7CC[C@H](CC(=O)O[C@@H]8[C@@H](C)[C@@H]9O[C@@H]%10C[C@]%11(C[C@@H]%12O[C@]%13(C[C@H](C)[C@@H]%14O[C@@H]%15CC(C(COC(C)=O)OC(C)=O)O[C@@H]%15C[C@@H]%14O%13)C[C@H](C)[C@@H]%12O%11)O[C@@H]%10C[C@@H]9O[C@H]8CC8O[C@@H](CC[C@@H]1O2)C[C@@H](C)C8(O)CO)O[C@@H]7[C@@H]6O3)[C@H]5O4 (some centres undefined) | > 0.834 µM | –
COc1cc(/C=C2\C(=O)Nc3ccc(Br)cc32)cc(OC)c1OC | > 78.7 µM | 3.21 µM
CCOC(=O)c1cc(C(=O)O)c(=O)n2c1[nH]c1ccccc12 | > 100 µM | –
O=C1c2c(O)ccc(O)c2C(=O)c2c(NCCNCCO)ccc(NCCNCCO)c21 | 2.73 µM and 1.69 µM and 2.56 µM | –
OCCN(CCO)c1ncnc2c1sc(=S)n2-c1ccccc1 | > 100 µM | –
COc1ccc2[nH]c3c(C)c4cc[n+](COC(=O)c5ccccc5)cc4c(C)c3c2c1 | 5.68 µM | –
c1cc2ccc1C1NCCCN1CCN1CCCNC1c1ccc(cc1)C1NCCCN1CCN1CCCNC21 (centres undefined) | > 100 µM | –
CC12O[Te]34OC1(C)C(C)(O3)C2(C)O4 | 25.4 µM | –
Fc1ccc(-c2cc(-c3cn[nH]c3-c3ccccn3)ccn2)cc1 | > 25 µM | > 25 µM
COc1cc2c3c(c1OC)/C(=N/OS(=O)(=O)c1ccc(C)cc1)CC3N(S(=O)(=O)c1ccc(C)cc1)CC2 (centres undefined) | > 100 µM | –
Cc1ccc(-c2cc(C(Cl)Cl)on2)cc1 | > 100 µM | 34.6 µM
CCOC(=O)/N=c1\ssc(Cl)c1Cl | 29.6 µM | 12.7 µM
O=C1c2c(Br)sc(Br)c2[C@H]2OC(=S)N[C@@H]12 | 29 µM | –
C=C[C@@]1(C)CC(=O)[C@]2(O)[C@@]3(C)[C@@H](O)CCC(C)(C)[C@@H]3[C@H](O)[C@@H](OC(C)=O)[C@@]2(C)O1 | > 100 µM | –
CC(=O)Nc1ccc2c(c1)nc1c3ccccc3ccn21 | > 100 µM | –
O=c1[nH]nc(-c2ccc([N+](=O)[O-])cc2)[nH]1 | > 100 µM | –
CN1C=C(C(N)=O)C2CC(O)[C@@](NC(=O)CS(N)(=O)=O)(C(=O)O)C2C1 (some centres undefined) | 15.4 µM | –
COc1ccc(-c2oc3cc(OC)ccc3c(=O)c2O)cc1 | > 100 µM | –
OC(CCN1CCN(CCOC(c2ccc(F)cc2)c2ccc(F)cc2)CC1)c1ccc(Br)cc1 (centres undefined) | 23.4 µM | –
O=C(O)C(CS)N=Cc1nc(-c2ccccc2)oc1O (centres undefined) | > 100 µM | –
CN(C)CCN1C(=O)N(CCN(C)C)c2c3cc(O)ccc3nc3c([N+](=O)[O-])ccc1c23 | 23.9 µM | –
CC(=O)N=S(NC(=O)c1ccc(C)cc1)C(Cl)(Cl)Cl (centres undefined) | > 100 µM | –
O=C(Nc1cccc(Cl)c1)c1cc(Cl)ccc1O | 6.85 µM | 0.581 µM
CN(C)C(=O)/N=C1\SC(=Nc2ccccc2)C(=Nc2ccccc2)N1c1ccc([N+](=O)[O-])cc1 | > 100 µM | –
